PubChem BioAssay AID1745853 (National Center for Advancing Translational Sciences (NCATS), 2022)
“And” between values parts separate entries of the source, which are not always exact repeats. Equal values may be shown once. The list shows a part of the results. Shown are side measurements of this screen, not its main read-out; they come without a call.

What was measured:
Assay in all cases: Primary Screen for Target Class Profiling of Small Molecule Inhibitors of Methyltransferases
[1] = biological target: Glycine N-methyltransferase (Homo sapiens) (UniProt Q14749); conditions: purified enzyme, MTase-Glo SAH luminescence; measured here: GNMT inhibition; at 40 µM; stronger effect = lower value
Procedure, shortened: (§1)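 Each enzyme was assayed with SAM and its substrate. SAH formation detected by MTase-Glo luminescence; single-point 40 uM screen[…].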

[2] = biological target: Guanidinoacetate N-methyltransferase (Homo sapiens) (UniProt Q14353); conditions: purified enzyme, MTase-Glo SAH luminescence; measured here: GAMT inhibition; at 40 µM; stronger effect = lower value
Procedure, shortened: as §1

[3] = biological target: Histamine N-methyltransferase (Homo sapiens) (UniProt P50135); conditions: purified enzyme, MTase-Glo SAH luminescence; measured here: HNMT inhibition; at 40 µM; stronger effect = lower value
Procedure, shortened: as §1

[4] = biological target: Nicotinamide N-methyltransferase (Homo sapiens) (UniProt P40261); conditions: purified enzyme, MTase-Glo SAH luminescence; measured here: NNMT inhibition; at 40 µM; stronger effect = lower value
Procedure, shortened: as §1

[5] = biological target: Phenylethanolamine N-methyltransferase (Homo sapiens) (UniProt P11086); conditions: purified enzyme, MTase-Glo SAH luminescence; measured here: PNMT inhibition; at 40 µM; stronger effect = lower value
Procedure, shortened: as §1
% is scaled to controls: 0 for no effect and ±100 for the full control effect.

Compound | activity change, negative = inhibition [1] | activity change, negative = inhibition [2] | activity change, negative = inhibition [3] | activity change, negative = inhibition [4] | activity change, negative = inhibition [5]
CCOc1ccc(C2c3cccn3-c3ccccc3CN2C(=O)Nc2ccc(C)c(F)c2)cc1 (configuration not stated) | 0.002% | 0% | 6% | 2.93% | 2.74%
[Cl-].[Cl][Pt].[NH2-].[NH2-].c1ccncc1 | -93.7% | 7.69% | -0.062% | -5.09% | 7.17%
CCc1ccccc1NC(=O)N1Cc2ccccc2-n2cccc2C1CC (configuration not stated) | -11% | 0% | -2.17% | -4.26% | 2.04%
C=C[C@H]1CN2CC[C@H]1C[C@@H]2CNCc1ccc2c(c1)OCO2 | -5.64% | -3.84% | -28% | -8.64% | -0.782%
O=c1c(C2CCCCC2)ccc2n1C[C@H]1C[C@@H]2CN(S(=O)(=O)c2ccccc2)C1 | -14.8% | -8.77% | -6.92% | -19% | -3.46%
COC(=O)CC1CC2(C(=O)c3c(O)cccc3C2(O)C(=O)OC)C(C)O1 (configuration not stated) | 0% | 8.94% | 10.5% | -2.66% | 7.22%
CCC1(O)CCC2C3CCC4=CC(=O)CCC4C3CCC21CC (configuration not stated) | -3.49% | 1.15% | 3.17% | -14.3% | -1.16%
Cc1cc(C(=O)CN2CCCC2)c(C)n1-c1ccc(F)cc1 | -8.32% and -9.2% | 1.75% and -10.2% | -3.22% and -5.15% | -15.4% and -19.8% | -4.25% and -5.52%
Cc1ccc(CNC(=O)N2Cc3ccccc3-n3cccc3C2c2ccc(F)cc2)cc1 (configuration not stated) | -3.6% | 3.42% | -3.71% | -5.2% | 2.06%
C[C@@]1(CO)[C@H](O)CC[C@@]2(C)[C@H]1CC[C@H]1C[C@@H]3C[C@@]12CC[C@]3(O)CO | 0% | 3.59% | -0.028% | -9.37% | 4.2%
CC1(C(=O)O)C2CCC(O2)C1(C)C(=O)O (configuration not stated) | -11.1% | 2.9% | -0.379% | -3.77% | 5.43%
CC(C)(C)NCC(O)c1ccccc1Cl (configuration not stated) | 2.59% | 14.6% | 8.71% | -1.07% | 6.19%
Cc1ccc(CNC(=O)N2Cc3ccccc3-n3cccc3C2C)cc1 (configuration not stated) | 12.7% | 3.17% | 3.51% | -5.71% | 7.21%
CC1c2cccn2-c2ccccc2CN1C(=O)NCc1ccccc1 (configuration not stated) | 4.84% | 3.07% | -7.56% | -17.8% | -0.44%
Cc1cccc(C2c3cccn3-c3ccccc3CN2C(=O)Nc2cccc(Cl)c2C)c1 (configuration not stated) | 0.857% | 2.86% | -1.58% | 0.111% | 0.896%
C#C[C@H]1CN2CC[C@H]1C[C@@H]2CNC(=O)C1CC1 | -3.84% | -3.23% | -13.8% | -7.26% | -7.93%

Compound | activity change, negative = inhibition [1] | activity change, negative = inhibition [2] | activity change, negative = inhibition [3] | activity change, negative = inhibition [4] | activity change, negative = inhibition [5]
CCC1c2cccn2-c2ccccc2CN1C(=O)NCCc1ccccc1 (configuration not stated) | 6.56% | 0% | -1.96% | -2.4% | 2.89%
COC(=O)N1CCN(C(=O)Cc2ccc(Cl)c(Cl)c2)[C@@H](CN2CCCC2)C1 | 2.92% |  | 5.15% |  | 
FC(F)(F)CN1C2CCC1CN(c1nnc(Cl)c3ccccc13)C2 | -17.2% | 0.825% | -0.842% | -3.81% | -5.5%
CC(=O)OCC1=C(C(=O)O)N2C(=O)[C@@H](N)[C@H]2SC1 | 2.05% | 1.23% | 13.4% | -4.02% | 5.01%
CCC1c2cccn2-c2ccccc2CN1C(=O)Nc1ccc(C)c(Cl)c1 (configuration not stated) | 1.4% | 5.08% | 1.99% | 1.93% | 3.36%
CCOc1ccc(C2c3cccn3-c3ccccc3CN2C(=O)NCCC(=O)OC)cc1 (configuration not stated) | -0.551% | 1.12% | 6.01% | 3.55% | 7.83%
Cc1cccc(NC(=O)N2Cc3ccccc3-n3cccc3C2C)c1 (configuration not stated) | 9.36% | 4.11% | 5.27% | 0.04% | 6.34%
CCCS(=O)(=O)Nc1ccc(=O)n2c1[C@@H]1C[C@@H](CN(C(=O)Nc3ccc(OC)cc3)C1)C2 | -3.25% | 2% | -2.95% | -1.14% | 0.366%
CSc1nccc(N2CCC3(CCCN(CC4CC4)C3)C2)n1 (configuration not stated) | -3.52% | -9.57% | -13.8% | -13.3% | -8.69%
CCC(C)(C#N)O[C@@H]1O[C@H](CO)[C@@H](O)[C@H](O)[C@H]1O (some centres not stated) | 1.01% | 10.1% | 9.09% | -3.63% | 6.99%
CC(=O)OC[C@]12[C@H](OC(C)=O)C(=O)[C@@H]3[C@@H](O)[C@@]14O[C@@]3(C)COC(=O)c1cccnc1[C@@H](C)[C@H](C)C(=O)O[C@@H]([C@H](OC(C)=O)[C@@H]2OC(C)=O)[C@]4(C)O | 4.98% | 4.52% | 6.26% | -7.34% | 2.32%
CC1=CC(=O)[C@@H](O)[C@]2(C)C3[C@@H](O)[C@@H]4OC(=O)[C@@H]([C@H]4C)[C@]3(C)C(=O)C[C@@H]12 (some centres not stated) | 0% | 1.71% | 2.1% | -10.4% | 4.98%
NCc1cc(=O)[nH]o1 | -2.23% | 7.54% | 1.94% | -4.71% | -1.79%
C[C@H]1CCC/C=C/C2C[C@H](O)C[C@H]2[C@H](O)/C=C/C(=O)O1 (some centres not stated) | -5% | -4.81% and 6.73% | 3.5% | -8.97% and -6.99% | -2.33% and 5.26%
C[C@]12CC[C@H](O[C@@H]3O[C@H](CO)[C@@H](O)[C@H](O)[C@H]3O[C@@H]3O[C@H](CO)[C@@H](O)[C@H](O)[C@H]3O)CC1=CC[C@@H]1[C@@H]2CC[C@]2(C)[C@@H](C3=CC(=O)OC3)CC[C@]12O | -3.64% | -5.52% | 0.263% | -12.7% | -1.87%
